# Test results from PubChem BioAssay AID1963576 (National Center for Advancing Translational Sciences (NCATS), 2024).
# Screen size: about 46,000 compounds; about 60 (0.1%) were called active. Inconclusive results (about 3%) are left out. Calls follow the shape of the dose curve; as a rule, active = well fitted inhibition curve with a large enough effect; inconclusive = small, poorly fitted or top-dose-only effect; inactive = no such curve, though single readings can be large or run the other way. This is one part of the list.
# Experiment: Primary qHTS assay for Inhibitors of ovarian cancer metastasis using an organotypic tumor microenvironment (TME) model. Also: nearly all actives have a fitted effect of over 65% in size.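 As to activity change, negative = inhibition: plate controls were DMSO wells for no effect and tomatine positive control wells for full effect.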
# Conditions: SKOV3ip1-GFP adhesion/invasion on 3D omental model, fluorescence; series mostly up to 45.8 µM; activity change, negative = inhibition: at the top concentration
# Summary of the method: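 qHTS, 4-pt dose (0.36-46 umol/L); SKOV3ip1-GFP, 1,200 cells/well, no FBS; primary omental fibroblast/mesothelial co-culture 48 h pre-grown; 2 h RT + 16 h 37 C; PBS wash, 4% PFA; GFP count 488/509 nm.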
Compound,"activity change, negative = inhibition",outcome
CCNC(=O)c1cc2n(n1)CCCN(Cc1ccc(C)cc1)C2=O,inactive: 4.7%,
COc1ccc(CCNC(=O)c2cc3c(=O)oc4ccc(C)cc4c3s2)cc1OC,inactive: 3.29%,
COc1ccc(OCC(=O)Nc2ccc3nn(-c4ccc(OC)cc4)nc3c2)cc1,,inactive
CCOC(=O)c1sc2ccccc2c1S(=O)(=O)N1CCN(c2cc(C)ccc2C)CC1,,inactive
CCc1nn2c(=O)c(S(=O)(=O)Nc3ccc(Br)cc3F)c(C)nc2s1,inactive: 9.92%,
O=C(NC1CCCCC1)c1ccc(CSc2nc3ccncc3n2Cc2ccc(F)cc2)cc1,inactive: 3.41%,
Cc1ccccc1NC(=O)Cn1nnc(C(=O)NCCc2ccccc2)c1N,inactive: 25.8%,
Cc1cc(C)c(NC(=O)c2c(C)nn(-c3ccc(F)cc3)c2-n2cccc2)c(C)c1,inactive: -0.437%,
CN1CCN(C(=O)Cn2ncc3c4ccccc4n(Cc4ccc(Cl)cc4)c3c2=O)CC1,inactive: -0.082%,
O=C(CSc1nccn1Cc1ccc(F)cc1)NCc1ccc(F)cc1,inactive: -18%,
CS(=O)(=O)N1CCc2cc(C(=O)N3CCN(c4ccccc4F)CC3)ccc21,inactive: -23%,
O=C(CCSCc1ccc(Cl)cc1)NCc1ccc(F)cc1Cl,inactive: 4.59%,
COc1ccccc1CNc1nc2c(S(=O)(=O)c3ccccc3)nnn2c2ccc(Cl)cc12,inactive: -2.85%,
COc1ccc(C2C=C(c3ccc(Br)cc3)Nc3nnnn32)c(OC)c1 (stereo unspecified),inactive: -16.8%,
COc1ccc(Nc2cc(C(=O)NC3CCCC3)c3ccccc3n2)cc1,inactive: 1.14%,
Cc1ccc(NC(=O)c2c(NC(=O)c3ccccc3Cl)sc3c2CCC3)cc1,inactive: 3.76%,
CSc1nc(=O)c2c(n1C)NC(=O)CC2c1cc(F)cc(F)c1 (stereo unspecified),inactive: 29.8%,
NC(=O)c1nn2c(C(F)(F)F)cc(-c3ccc(Br)cc3)nc2c1Cl,inactive: -3.4%,
CC(=O)c1cccc(NC(=O)Cn2nc(C(F)(F)F)c3c2CCC3)c1,,inactive
COc1ccc(C2C(C(=O)Nc3ccc(C)cc3C)=C(C)Nc3nc(SCc4cccc(C)c4)nn32)c(OC)c1 (stereo unspecified),inactive: 41.5%,
Cc1ccc(C)c(N(C)C(=O)Cc2c(C(=O)O)[nH]c3ccc(Cl)cc23)c1,,inactive

Compound,"activity change, negative = inhibition",outcome
COc1ccccc1CNC(=O)CSc1nc(=O)[nH]c2c1CCC2,inactive: 3%,
CC1=C(C(=O)Nc2ccc(C)cc2C)C(c2ccc(Br)cc2)n2ncc(C(=O)Nc3cccc(C)c3)c2N1 (stereo unspecified),inactive: 1.33%,
COc1ccc(N2CCN(S(=O)(=O)c3ccc(-c4cnc(C5CC5)o4)cc3)CC2)cc1,,inactive
COc1cccc(CNC(=O)CN2C(=O)N(c3cccc(Cl)c3)S(=O)(=O)c3ccccc32)c1OC,,inactive
COc1ccccc1-c1nn2c(=O)cc(CN3CCN(C(=O)/C=C/c4ccccc4)CC3)nc2s1,inactive: -3.91%,
CN(C)c1ccc(Nc2nc3ccccc3n3nnnc23)cc1,inactive: 3.54%,
CCCCCn1c(CNC(=O)c2ccccc2)nc2ccccc21,inactive: -12.3%,
CCc1ccc(S(=O)(=O)NCc2nc3cccnc3n2Cc2cccc(OC)c2)cc1,inactive: 9.37%,
CCN(CC)c1ccc(-n2nc3cc(C)c(NC(=O)c4ccccc4C)cc3n2)c(C)c1,inactive: 0.401%,
CCOc1ccc(NC(=O)Cn2c(=O)n(CCCCC(=O)NCc3ccc4c(c3)OCO4)c(=O)c3ccccc32)cc1,,inactive
COc1ccc(S(=O)(=O)c2nnn(-c3ccc(C(C)C)cc3)c2C)cc1,inactive: 1.08%,
Cc1cc(C)c(S(=O)(=O)N2CCN(Cc3ccc4c(c3)OCO4)CC2)cc1C,inactive: 1.01%,
Cc1c(Cl)cccc1Nc1nn2c(=O)c3ccc(C(=O)NCCC4=CCCCC4)cc3nc2s1,inactive: 2.46%,
Cc1ccccc1Cn1c(=O)n(CC2CCC(C(=O)N3CCOCC3)CC2)c(=O)c2sccc21 (stereo unspecified),inactive: 4.14%,
CCOc1ccc(C2C(=O)N(C3CCCCC3)CC(=O)N2CCc2ccccc2)cc1OC (stereo unspecified),inactive: 0.109%,
Oc1ccc(-c2nc3ccc(Cl)cn3c2Nc2ccc3c(c2)OCO3)cc1,inactive: 2.51%,
COc1ccc(CCNC(=O)Cc2c(C)c3cc4c(C)coc4cc3oc2=O)cc1OC,,inactive
Cc1ccc(-n2c(=O)c3c(C)c(C)sc3n(Cc3ccc(F)cc3Cl)c2=O)cc1C,inactive: 28.6%,
O=C1CC(=O)Nc2cc(S(=O)(=O)N3CCOc4ccc(Cl)cc43)ccc2N1,inactive: 2.68%,
COc1ccc(N(C(=O)c2ccccc2)S(=O)(=O)c2ccc3c(c2)n(C)c(=O)n3C)cc1,inactive: 7.04%,
O=C(NCc1ccc(Cl)cc1)C1CCN(S(=O)(=O)c2ccccc2)CC1,inactive: 10.2%,

Compound,"activity change, negative = inhibition",outcome
CC(=O)c1ccc(NC(=O)Cn2ncc3c4ccccc4n(Cc4ccccc4)c3c2=O)cc1,inactive: -16.1%,
COc1cc(C(=O)NCc2nc3cccnc3n2Cc2ccc(C)cc2)cc(OC)c1OC,inactive: 1.14%,
Cc1cc(C)c(NS(=O)(=O)c2ccc(-c3coc(C)n3)cc2)c(C)c1,inactive: -5.26%,
Cc1cccc(Cn2nnc3c(=O)[nH]c(C4CCCN(C(=O)c5ccccc5Cl)C4)nc32)c1 (stereo unspecified),,inactive
CCN1CCN(C(c2ccccc2Cl)c2c(O)cc(C)n(Cc3ccco3)c2=O)CC1 (stereo unspecified),inactive: -0.981%,
Cn1c(=O)c2c(ncn2Cc2ccc(Cl)cc2)n(C)c1=O,inactive: -5.14%,
O=C(Cn1c(=O)n2nc(-c3cccc(F)c3)nc2c2ccccc21)N1CCN(c2ccc(F)cc2)CC1,inactive: 2.99%,
O=C(NC1CC(=O)N(c2ccc(F)cc2)C1)c1ccc2c(c1)OCO2 (stereo unspecified),inactive: -6.26%,
COc1ccccc1CNC(=O)CCn1cnc2ccccc2c1=O,inactive: 1.56%,
Cc1ccc(N(C)C(=O)CN2C(=O)CCc3cc(S(=O)(=O)N4CCOCC4)ccc32)cc1,,inactive
O=C(c1ccc2c(c1)N(Cc1cccc(Cl)c1)C(=O)c1ccccc1S2=O)N1CCN(c2cccc(C(F)(F)F)c2)CC1 (stereo unspecified),inactive: 7.93%,
COc1ccc(N2CCN(C(=O)CNS(=O)(=O)c3ccc(Br)s3)CC2)cc1,inactive: 3.13%,
N#Cc1nc(/C=C/c2ccc(F)cc2)oc1NCc1ccc(F)cc1,,inactive
Cc1cccc(N2CCN(C(=O)c3noc4c3CCCCC4)CC2)c1C,inactive: -9.71%,
COc1ccccc1NC(=O)c1cn(-c2ccccc2)nc1-c1ccccc1,inactive: -1.35%,
Cc1cc(C(=O)C(=O)Nc2nncs2)c(C)n1-c1ccc(Cl)cc1,inactive: 4.25%,
CCc1ccc(NC(=O)Cn2c(=O)n(-c3cc(OC)c(OC)c(OC)c3)c(=O)c3ccccc32)cc1,inactive: -8.48%,
CC(NC(=O)c1ccc(F)cc1)c1nc2ccccc2[nH]1 (stereo unspecified),,inactive
COc1ccc(CNC(=O)CCCn2nc(C)c3c(C)n(-c4ccc(C)cc4)nc3c2=O)cc1OC,inactive: 9.77%,
